Read counts are not given, so values of variants with three or more changes are uncertain.
B1: OR4K15 (parent)
chain: GUUAACGGUCAUAGGCCAUGGAAACUAGGAGCACCAUUUCGCUGCCAGUGAAGAAAUGAACAAAGAAAAUCUGGGCCAGGCAGGCAUCAAAAGAAAUAGUCUUGCGCUCAACCAGAAAGUCUGUAAUCAUUUUAAGGGUA

Variants of: B1
Assay: self-cleavage, relative activity (ratio to wild type); higher = more cleavage; in vitro, sequencing; the parent is a self-cleaving ribozyme

| Variant | self-cleavage |
| --- | --- |
| GUUGACGGUCAUAGGCCAUGGAAACUAGGAGCACCAUUUCGCUGCCAGUGAUGAAAUGAACAAAGAAAAUCUGGGCCAGGCAGGCAUCAAAAGAAAUAGUCUCGCGCUCAACCAGAAAGUCUGUAAUCAUUUUAAGGGUA [A4G A52U U103C] | 1.55 |
| GUUGACGGUCAUAGGCCAUGGAAACUAGGAGCACCAUUUCGCUGCCAGUGAAGGAGUGAACAAAGAAAAUCUGGGCCAGGCAGGCAUCAAGAGAAAUAGUCUUGCGCUCAACCAGAAAGUCUGUAAUCAUUUUAAGGGUA [A4G A54G A56G A91G] | 0.78 |
| GUUGACGGUCAUAGGCCAUGGAAACUAGGAGCACCAUUUCGCUGCCAGUGAAGGAAUGAACAGAGAAAUUCUGGGCCAGGCAGGCAUCAAAAGAAAUAGUCUUGCGCUCAACCAGAAAGUCUGUAAUCAUUUUAAGGGUA [A4G A54G A63G A69U] | 1.7 |
| GUUGACGGUCAUAGGCCAUGGAAACUAGGAGCACCAUUUCGCUGCCAGUGAAGGAAUGAACAAAGAAAAUCUGGGCCAGGCAGGCAUCAAGGGAAAUAGUCUUGCGCUCAACCAGAAAGUCUGUAAUCAUUUUAAGGGUA [A4G A54G A91G A92G] | 1.59 |
| GUUGACGGUCAUAGGCCAUGGAAACUAGGAGCACCAUUUCGCUGCCAGUGAAGAGAUGAACAAAGGAAAUCUGGGCCAGGCAGGCACCAAAAGAAAUAGUCUUGCGCUCAACCCGAAAGUCUGUAAUCAUUUUAAGGGUA [A4G A55G A66G U87C A114C] | 0.05 |
| GUUGACGGUCAUAGGCCAUGGAAACUAGGAGCACCAUUUCGCUGCCAGUGAAGAAGUGAACAAAGAAAAUCUGGGCCAGGCAGGCAUCAGAAGAAAUAGUCUUGCGCUCAACCAGAAAGUCCGUAAUCAUUUUAAGGGUA [A4G A56G A90G U122C] | 0.25 |
| GUUGACGGUCAUAGGCCAUGGAAACUAGGAGCACCAUUUCGCUGCCAGUGAAGAAGUGAACAAAGAAAAUCUGGGCCAGGCAGGCAUCAAAAGGAAUAGUCUUGCGCUCAACCAGAAAGUCUGUAAUCAUUUUAAGGGUA [A4G A56G A94G] | 0.28 |
| GUUGACGGUCAUAGGCCAUGGAAACUAGGAGCACCAUUUCGCUGCCAGUGAAGAAGUGAACAAAGAAAAUCUGCGCCAGGCAGGCAUCAAAAGAAAUAGUCUUGCGCUCAACCAGAAAGGCUGUAAUCAUUUUAAGGGUA [A4G A56G G74C U120G] | 0.29 |
| GUUGACGGUCAUAGGCCAUGGAAACUAGGAGCACCAUUUCGCUGCCAGUGAAGAAAUGGACAAAGAAAGUCUGGGCCAGGCAGGCAUCAAAAGAGAUAGUCUUGCGCUCAACCUGAAAGUCUGUAAUCAUUUUAAGGGUA [A4G A59G A69G A95G A114U] | 0.15 |
| GUUGACGGUCAUAGGCCAUGGAAACUAGGAGCACCAUUUCGCUGCCAGUGAAGAAAUGAGCAGAGAAAAUCUGGGCCAGGCAGGCAUCAAAAGGAAUAGUCUUGCGCUCAACCAGAAAGUCUGUAAUCAUUUUAAGGGUA [A4G A60G A63G A94G] | 0.59 |
| GUUGACGGUCAUAGGCCAUGGAAACUAGGAGCACCAUUUCGCUGCCAGUGAAGAAAUGAACGAAGAAAAUCUGGGCCAGGCAGGCAUCAAAAGAAAUAGUCUUGCGCUCAACCUGAAAGACUGUAAUCAUUUUAAGGGUA [A4G A62G A114U U120A] | 0.08 |
| GUUGACGGUCAUAGGCCAUGGAAACUAGGAGCACCAUUUCGCUGCCAGUGAAGAAAUGAACAAGGAAAAUCUGGGCCAGGCAGGCAUCAAAAGAAAUAGUCUUGCGCUCAACCAGAAAGUCUGUAACCAUUUUAAGGGUA [A4G A64G U127C] | 0.76 |
| GUUGACGGUCAUAGGCCAUGGAAACUAGGAGCACCAUUUCGCUGCCAGUGAAGAAAUGAACAAAGGAAAUCUGGGCCAGGCAGGCAUCAAAAGAGAUAGUCUUGCGCUCAACCAGAAAGUCUGUAAUCAUUUUAAGGGUA [A4G A66G A95G] | 0.65 |
| GUUGACGGUCAUAGGCCAUGGAAACUAGGAGCACCAUUUCGCUGCCAGUGAAGAAAUGAACAAAGAUAAUCUGGGCCAGGCAGGCAUCAAAAGAAGUAGUCUUGCGCUCAACCAGAAAGCCUGUAAUCAUUUUAAGGGUA [A4G A67U A96G U120C] | 1 |
| GUUGACGGUCAUAGGCCAUGGAAACUAGGAGCACCAUUUCGCUGCCAGUGAAGAAAUGAACAAAGAUAACCUGGGCCAGGCAGGCAUCAAAAGAAAUAGUCUUGCGCUCAACCAGAAAGUCUGUAAUCAUUUUAAGGGUA [A4G A67U U70C] | 1.16 |
| GUUGACGGUCAUAGGCCAUGGAAACUAGGAGCACCAUUUCGCUGCCAGUGAAGAAAUGAACAAAGAAGAUCUGGGCCAGGCAGGCAUCAAAAGAAAUAGUCUUGCGCUCAACCAGAAAGUCUGUGAUCAUUUUAAGGGUA [A4G A68G A125G] | 0.47 |
| GUUGACGGUCAUAGGCCAUGGAAACUAGGAGCACCAUUUCGCUGCCAGUGAAGAAAUGAACAAAGAAGAUCCGGGCCAGGCAGGCAUCAAAAGAAAUAGUCCUGCGCUCAGCCAGAAAGUCUGUAAUCAUUUUAAGGGUA [A4G A68G U72C U102C A111G] | 0.16 |
| GUUGACGGUCAUAGGCCAUGGAAACUAGGAGCACCAUUUCGCUGCCAGUGAAGAAAUGAACAAAGAAAGUCUGGGCCAGGCAGGCAUUAAAAGAAAUAGUCUUACGCUCAACCAGAAAGUCUGUAAUCAUUUUAAGGGUA [A4G A69G C88U G104A] | 0.03 |
| GUUGACGGUCAUAGGCCAUGGAAACUAGGAGCACCAUUUCGCUGCCAGUGAAGAAAUGAACAAAGAAAAUCUGGGCCGGGCAGGCGUCAAAAGAAAUAGUCUUGCGCUCAACCAGAAAGUCUGUAAUCAUUUUAAGGGUA [A4G A78G A86G] | 0.45 |
| GUUGACGGUCAUAGGCCAUGGAAACUAGGAGCACCAUUUCGCUGCCAGUGAAGAAAUGAACAAAGAAAAUCUGGGCCAGGCGGGCAUCAAAAGAAAUAGUCUUGCGCUCAUCCAGAAAGUCUGUAAUCAUUUUAAGGGUA [A4G A82G A111U] | 0.18 |
